This is an account of results in PubChem BioAssay AID1508623 (National Center for Advancing Translational Sciences (NCATS), 2021).

Out of some 48,000 compounds screened, about 450 (0.94%) were called active. Not shown: some 19% with an inconclusive outcome. Calls follow the shape of the dose curve; as a rule, active = well fitted inhibition curve with a large enough effect; inconclusive = small, poorly fitted or top-dose-only effect; inactive = no such curve, though single readings can be large or run the other way. Some of the results follow.

This experiment can be described thus: Primary qHTS for Identification of Small Molecule Inhibitors of Huntingtin Promoter Activity. Also: nearly all actives have a fitted effect of over 50% in size. The settings on record: HEK293 HTT promoter firefly luciferase reporter (activity 0% = vehicle and -100% = no light), 24 h; series mostly up to 57.5 µM; activity change, negative = inhibition: at the top concentration. The text has this:
Assay Provider: Russell L. Margolis M.D.
Department Neurology, Johns Hopkins University School of Medicine, Baltimore, MD
Huntington's Disease (HD) is a neurodegenerative disorder caused by a CAG repeat expansion in exon 1 of huntingtin (HTT). While there are currently no disease-modifying treatments for HD, recent efforts have focused on development of nucleotide-based therapeutics to lower HTT expression. As an alternative to siRNA or oligonucleotide methods, we hypothesized that suppression of HTT expression might be accomplished by small molecules that either (1) directly decrease HTT expression by suppressing HTT promoter activity or (2) indirectly decrease HTT expression by increasing the promoter activity of HTT-AS, the gene antisense to HTT that appears to inhibit expression of HTT.
We developed and employed a high throughput screen for modifiers of HTT and HTT-AS promoter activity using luminescent reporter HEK293 cells; of the 52,041 compounds tested, we identified 898 replicable hits. We used a rigorous stepwise approach to assess compound toxicity and the capacity of the compounds to specifically lower huntingtin protein in 5 different cell lines, including HEK293 cells, HD lymphoblastoid cells, mouse primary neurons, HD iPSCs differentiated into cortical-like neurons, and HD hESCs. We found no compounds which were able to lower huntingtin without lowering cell viability in all assays, though the potential efficacy of a few compounds at non-toxic doses could not be excluded.
SEQUENCE No. (1, 2, 3, etc.); […] (e.g., Cells, Incubation, Reagent, etc.); VALUE and DESCRIPTION.
1; Reagent; 4 uL; 2,500 Hek293 luciferase reporter cells per wells
3; Compound; 23 nL; Control inhibitor / compound library
5; Reagent; 2.5 uL; Firefly Luc reagent; Dual-Glo Luciferase Reporter Assay System (Promega)
6; Time; 10 min; room temperature incubation
7; Detection; Luminescence; FLuc
NOTES (numbers refer to sequence above)
1; High-throughput screening, measuring luminescence from a Hek293 luciferase reporter, was performed in 1,536 well white-walled tissue-culture treated plates. 2,500 cells were plated in 4 µL of Opti-MEM per well using a Multidrop Combi Reagent Dispenser (ThermoFisher).
2; Assay plates were cultured for 24 hours.
3; Control inhibitor (PTC124; final concentration of 50 uM) and compound library (at final concentrations of 460 nM - 57.5 uM) were added to the assay plate using the Kalypsis Pintool Robotic System equipped with 1536 pinheads.
4; Cells were then incubated for 24 hours at 37 degrees C prior to luminescence measurements.
5; In all cases, luminescence was measured using the Dual-Glo Luciferase Reporter Assay System (Promega) following the manufacturer's instructions.
6; Room temperature incubation.
7; Luminescence signal was obtained using the PerkinElmer ViewLux plate reader. Results were normalized to vehicle control (0% activity) and zero RLU (-100% activity).
On the technique in general: qHTS replaces the single test concentration by a dilution series.
Regarding `O=C(C1COc2ccccc2O1)N(Cc1cccnc1)c1nc2c(Cl)cccc2s1` (configuration not stated), the “activity change, negative = inhibition” value was inactive: -28.5%.
As for `CCCNC(=O)c1ccc(-c2nc(CS(=O)(=O)c3ccc(C)cc3)c(C)o2)cc1`, the figure is inactive: -17.4%; as for `COc1cccc(C(=O)Nc2cccc(-c3cn4ccsc4n3)c2)c1OC`, inactive: 9.59%; as for `Cc1ccccc1-c1noc(-c2cccnc2N2CCN(c3ccccc3)CC2)n1`, inactive: -11.2%.
Then `CCOC(=O)c1ccc(NC(=O)CCn2c(=O)c3cccn3c3cccnc32)cc1`, with inactive: -6.93%; and `O=C(Nc1ccc(F)cc1F)c1cc(-c2ccc(Cl)cc2)on1`, with inactive: 2.77%.
As to `CCN(CC)C(=O)Cn1c(=O)n(-c2ccc(C)c(C)c2)c(=O)c2c3c(sc21)CCCCC3`, the “activity change, negative = inhibition” value is inactive: -3.91%.
Then `COc1ccc(NC(=O)c2ccc3c(SCC(=O)O)c4c(nc3c2)CCCC4)c(OC)c1`, with inactive: -6.4%.
Then `O=C(CN1C(=O)COc2ccc(S(=O)(=O)N3CCOCC3)cc21)N1CCN(c2cccc(Cl)c2)CC1`, with inactive: -9.58%; and `Cc1cccc(-c2nc3c4ccccc4n(Cc4cccc(Cl)c4)c(=O)n3n2)c1`, with inactive: -14.1%.
As for `C#CCSc1nc(-c2ccccc2)cc(-c2ccccc2)c1C#N`, the figure is inactive: -6.73%.
Regarding `Cc1ccc(-n2c3c(cc(-c4nc(-c5ccc(Cl)cc5)cs4)c2=O)C(=O)CC(C)(C)C3)cc1C`, the “activity change, negative = inhibition” value was inactive: -9.94%.
As for `Cc1ccnc2c1NC(=O)c1cccnc1N2C1CC1`, the figure is inactive: -1.05%.
Then `O=S(=O)(c1ccc(-c2cc(C(F)(F)F)on2)s1)N1CCN(c2ccc(F)cc2)CC1`, with inactive: -13.9%; and `CN(C)CCC=C1c2ccccc2CCc2ccccc21`, with inactive: -7.04%.
Then `COc1ccc(NC(=O)C2CCCN(c3ncnc4c3nc3n4CCCCC3)C2)c(OC)c1` (configuration not stated), with inactive: 23.5% [at 11.5 µM]; and `Cc1cc(Br)ccc1NC(=O)Cn1cc(S(=O)(=O)N2CCN(c3ccccc3F)CC2)c2ccccc2c1=O`, with inactive: 1.51%.
As for `Cc1ccc(C)c(N2CCN(C(=O)CCc3nnc4n(CC(C)C)c(=O)c5ccccc5n34)CC2)c1`, the “activity change, negative = inhibition” value was inactive: 0.144%.
On to `CCOc1ccc(CNC(=O)c2cnc3sc(N4CCOCC4)nn3c2=O)cc1`, for which the “activity change, negative = inhibition” value was inactive: -5.11%.
Then `CCn1cc(C(=O)N2CCN(c3cccc(Cl)c3)CC2)c2cc(OC)c(OC)cc2c1=O`, with inactive: -28%; and `CC(=O)c1ccc(Nc2nc3c(S(=O)(=O)c4ccccc4)nnn3c3ccc(Cl)cc23)cc1`, with inactive: -21.2%.
As for `CCSc1oc(-c2ccco2)nc1S(=O)(=O)c1ccc(Br)cc1`, the figure is inactive: -29.4%.
Then `Cc1ccc(NC(=O)Cn2c(=O)c3ccccc3n3nncc23)cc1`, with inactive: -20.2%; and `Cc1[nH]c(=O)c(C#N)cc1-c1ccncc1`, with “inactive”.
In the case of `CCN1c2ccccc2-c2nc(SCC(=O)NCc3ccccc3)ncc2S1(=O)=O`, the “activity change, negative = inhibition” value is inactive: -30.7%.
As for `COC(=O)CCNC(=O)NC(CCC(C)C)c1c(-n2cccc2)sc2c1CCN(C)C2` (configuration not stated), the figure is inactive: -12%.
Regarding `COc1ccccc1NC(=O)Cn1c(=O)n(CCC(=O)NCC2CCCO2)c(=O)c2cc(OC)c(OC)cc21` (configuration not stated), the “activity change, negative = inhibition” value is inactive: -10.1%.
For `CCC(=O)N1CCc2cc(S(=O)(=O)NCCC(=O)Nc3cc(C)ccc3OC)ccc21`, the “activity change, negative = inhibition” value is inactive: -26%.
Regarding `Cc1ccc2nc(-c3ccc(O)cc3)c(Nc3ccc(Cl)cc3)n2c1`, the “activity change, negative = inhibition” value is inactive: -13.6%.
Regarding `CCCN(CCC)C(=O)Cn1c(=O)n(-c2ccc(Cl)cc2)c(=O)c2c3c(sc21)CCCCC3`, the “activity change, negative = inhibition” value is inactive: -5.29%.
Then `Cc1ccc(-c2nn(-c3ccc(F)cc3)c3c2cnc2cc(F)c(F)cc23)cc1`, with inactive: -13.6%.
`CCCc1cc(=O)[nH]c(SCC(=O)N2CCN(c3ccccc3OC)CC2)n1`: the “activity change, negative = inhibition” value was inactive: -1.13%.
As for `CC(C)[C@H](CO)Nc1nc(Nc2cccc(Cl)c2)c2ncn(C(C)C)c2n1`, the figure is inactive: -26.6%; as for `Cc1ccccc1C(=O)Nc1ccc(OCc2cc(=O)n3ccccc3n2)cc1`, inactive: 4.09%.
Then `Cc1ccc(NC(=O)Cn2cc(S(=O)(=O)N3CCCC3)c(S(=O)(=O)N3CCCC3)c2)cc1F`, with inactive: 7.83% [at 11.5 µM]; and `Cc1ccc(C)c(S(=O)(=O)c2nnn3c2nc(Nc2ccc(C)c(C)c2)c2ccccc23)c1`, with inactive: -14.3%.
As for `COc1cccc(NC(=O)CCN2CCN(c3ccccc3)CC2)c1`, the figure is inactive: -5.42%; as for `COc1cccc(C(=O)NCC(c2ccc(N(C)C)cc2)N2CCc3ccccc32)c1` (configuration not stated), inactive: -3.3%; as for `Cn1cc(CCC(=O)NCc2ccc(Cl)cc2)c2ccccc21`, inactive: -25.3%.
Turning to `CC1CCC(Nc2ncnc3onc(-c4ccc(F)cc4)c23)CC1` (configuration not stated), the “activity change, negative = inhibition” value was inactive: -21.7%.
Regarding `O=C(O)c1c(-c2ccccc2)oc2ccc(OCc3ccc(Cl)c(Cl)c3)cc12`, the “activity change, negative = inhibition” value is inactive: -16.8%.
Then `COc1cccc(-n2c(=O)c3c(C)c(C)sc3n(CC(=O)Nc3ccccc3OC)c2=O)c1`, with inactive: -7.25%; and `CCOc1cccc(C(=O)N(Cc2ccc(N(C)C)cc2)CC2CCCO2)c1` (configuration not stated), with inactive: -15.5%; and `CCOc1ccc(N(C(=O)c2ccccc2F)S(=O)(=O)c2ccc3c(c2)n(C)c(=O)n3C)cc1`, with inactive: 18.2%.
Then `CCc1ccccc1NC(=O)N1CCC(CN2CCc3ccccc3C2)CC1`, with inactive: -20.8%.
`Cc1ccc(C(=O)CCC(=O)Nc2ccc(C)cc2C)cc1`: the “activity change, negative = inhibition” value is inactive: 3.02%.
Then `CC1CCN(S(=O)(=O)c2ccc3c(ccc(=O)n3CC(=O)Nc3ccc(C(C)C)cc3)c2)CC1`, with inactive: -28.1%.
